Source: publication PMC11189308, “Vimentin filaments integrate low-complexity domains in a complex helical structure” (Nature Structural & Molecular Biology, 2024)

Target: the molecule itself
Assay: cryo-EM structure; single-particle reconstruction of tail-less filaments assembled by dialysis against 10 mM Tris HCl pH 7.5 with 100 mM KCl; helical symmetry imposed after refinement; 8.4 Å map

B1: human vimentin ΔT ([…]) (domain or fragment)
chain: not shown
notes: vimentin, human, […] (lacks the tail domain); Cloned in pEt24d(+); also called VIF-ΔT; VIFs-ΔT
- binding result: binds
